# Results as given in PubChem BioAssay (NCATS).
# The inconclusive results got no clear call from the source; some entries with a clear call stand among them for comparison. No potency is given beside an inconclusive call; the fits are too rough. Activity calls are given as the source filed them. Calls follow the shape of the dose curve; as a rule, active = well fitted curve in the direction sought with a large enough effect; inconclusive = small, poorly fitted or top-dose-only effect, or another doubt; inactive = no such curve, though single readings can be large; an effect the other way counts as inactive or inconclusive.
# Key:
# [1] = Primary redox qHTS assay for identification of artifact compounds. (AID 1845223)
# Method in brief: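 Amplex Red (25 uM) and HRP (250 mU/mL) in HBSS, with compounds for 15 min, then 250 uM DTT for 30 min, room temperature, dark. Fluorescence 525/598 nm read; normalized to DMSO and 10 uM DA3003; Hill fit.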
# [2] = Quantitative High-Throughput drug screen in 47 multiple myeloma cell lines against the NCATS MIPE library collection: FR4_PLB cell viability assay (AID 1918924; also: nearly all actives have a fitted effect of over 35% in size)
# Method in brief: (§1)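 Inhibition of cell viability is measured here. Each line was plated at 500 cells per well, treated with MIPE 4.0 drugs, kept 48 hours at 37C, then assayed for ATP content by CellTiter-Glo luminescence.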
# [3] = Quantitative High-Throughput drug screen in 47 multiple myeloma cell lines against the NCATS MIPE library collection: Delta47_JCRB cell viability assay (AID 1918925; also: nearly all actives have a fitted effect of over 45% in size); settings: Delta47 myeloma viability, CellTiter-Glo ATP, 48 h; viability (% of DMSO): at 45.8 µM (top of the series)
# Method in brief: (§2)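 Steps: seed 500 cells per well; pin-transfer MIPE 4.0 library; incubate 48 h at 37C, 5% CO2, humidified; add CellTiter-Glo, 5 min room temperature; read luminescence.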
# [4] = Quantitative High-Throughput drug screen in 47 multiple myeloma cell lines against the NCATS MIPE library collection: EJM_DSMZ cell viability assay (AID 1918926; also: nearly all actives have a fitted effect of over 30% in size)
# Method in brief: as §2
# [5] = Quantitative High-Throughput drug screen in 47 multiple myeloma cell lines against the NCATS MIPE library collection: ARP1_JJKsccF8 cell viability assay (AID 1918928; also: nearly all actives have a fitted effect of over 40% in size); settings: ARP1 myeloma cells viability, CellTiter-Glo ATP, 48 h; viability: at 45.8 µM (top of the series)
# Method in brief: (§3)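 Myeloma cells at 500 per well in 1536-well format treated with MIPE 4.0 library by pin transfer for 48 h at 37C, 5% CO2. Viability from ATP luminescence (CellTiter-Glo), normalized to DMSO (100%) and media-only (0%) wells.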
# [6] = Quantitative High-Throughput drug screen in 47 multiple myeloma cell lines against the NCATS MIPE library collection: KMM1_JCRB cell viability assay (AID 1918960); settings: KMM1 myeloma viability, CellTiter-Glo ATP luminescence, 48 h; viability (% of DMSO): at 45.8 µM (top of the series); also: nearly all actives have a fitted effect of over 30% in size
# Method in brief: as §3
# [7] = Quantitative High-Throughput drug screen in 47 multiple myeloma cell lines against the NCATS MIPE library collection: ARD_JJKsccE7 cell viability assay (AID 1918929); settings: ARD myeloma cell line viability, CellTiter-Glo, 48 h; viability: at 45.8 µM (top of the series)
# Method in brief: as §2
# [8] = Quantitative High-Throughput drug screen in 47 multiple myeloma cell lines against the NCATS MIPE library collection: AMO1_DSMZ cell viability assay (AID 1918927; also: nearly all actives have a fitted effect of over 30% in size); settings: AMO1 myeloma cells viability, CellTiter-Glo ATP luminescence, 48 h; viability, % of DMSO: at 45.8 µM (top of the series)
# Method in brief: as §2
# [9] = Quantitative High-Throughput drug screen in 47 multiple myeloma cell lines against the NCATS MIPE library collection: Karpas620_DSMZ cell viability assay (AID 1918959); also: nearly all actives have a fitted effect of over 30% in size
# Method in brief: as §1
# Potency is read from the fitted curve at half-maximal effect; tags tell the direction and shape of the fitted curve.
Compound,Potency [1],Potency [2],Potency [3],Potency [4],Potency [5],Potency [6],Potency [7],viability (% of DMSO) [6],Potency [8],Potency [9]
COC(=O)N1CCN(C(=O)Cc2ccc(Cl)c(Cl)c2)[C@@H](CN2CCCC2)C1,"inconclusive [activator, single point]",–,–,–,–,–,–,–,–,–
CC(C)N(CCNC(=O)CN1CCCC1=O)C(C)C,–,inactive,inactive,inactive,inactive,inactive,–,–,–,–
N=c1c2c(-c3ccccc3)c(-c3ccccc3)n(Cc3ccccc3)c2ncn1C1CCC(O)CC1 (configuration not stated),–,"inconclusive [cytotoxic, single point]",active: 0.166 µM,"inconclusive [cytotoxic, single point]",–,active: 0.662 µM,–,–,–,–
CC[C@H]1C=CC=CC[C@@H](C)[C@H](O)[C@@](C)(O)C(=O)[C@@H](C)[C@H](O)[C@@H](C)C(=O)[C@@H](C)[C@H](O)[C@@H](C)C=CC(=O)O[C@@H]2[C@@H](C)[C@H](CC1)O[C@]1(CC[C@H](C)[C@H](C[C@@H](C)O)O1)[C@H]2C,–,"inconclusive [cytotoxic, partial curve, poor fit]",active: 0.001 µM,"inconclusive [cytotoxic, partial curve, poor fit]",–,–,active: 0.001 µM,inconclusive: 4.17% [cytotoxic],–,–
O=P1(NCCCl)OCCCN1CCCl (configuration not stated),–,active: 16.6 µM,"inconclusive [cytotoxic, partial curve]",–,"inconclusive [cytotoxic, partial curve]","inconclusive [cytotoxic, partial curve]","inconclusive [cytotoxic, partial curve]",–,active: 5.9 µM,"inconclusive [cytotoxic, full curve]"
C[C@@H]1CC[C@H]2[C@@H](C)C(=O)O[C@@H]3O[C@@]4(C)CC[C@H]1[C@]32OO4,–,"inconclusive [cytotoxic, partial curve, poor fit]",inconclusive [cytotoxic],–,–,–,–,–,"inconclusive [cytotoxic, partial curve, poor fit]",–
CN(C)CCN(C)CCc1ccc(Cl)c(Cl)c1,–,inactive,"inconclusive [rising, full curve, poor fit]",inactive,inactive,inactive,inactive,–,active: 20.9 µM,–
C[C@]12Cc3cn[nH]c3C[C@@H]1CC[C@@H]1[C@H]2CC[C@@]2(C)[C@H]1CC[C@]2(C)O,–,"inconclusive [cytotoxic, partial curve, poor fit]",inconclusive [cytotoxic],"inconclusive [rising, full curve, poor fit]","inconclusive [cytotoxic, partial curve, poor fit]",–,–,–,"inconclusive [cytotoxic, partial curve, poor fit]",inactive
C[C@]12CC[C@@H]3[C@@H](CCC4=CC(=O)CC[C@@H]43)[C@@H]1CC[C@@H]2OC(=O)CCc1ccccc1,–,inactive,"inconclusive [rising, partial curve, poor fit]","inconclusive [cytotoxic, single point]","inconclusive [cytotoxic, single point]",–,"inconclusive [rising, full curve, poor fit]",–,–,–
NCC1(CC(=O)O)CCCCC1,–,inactive,"inconclusive [rising, full curve, poor fit]",inactive,inactive,–,inactive,–,inactive,–
O=S(=O)(CC1CS1)c1ccc(Oc2ccccc2)cc1 (configuration not stated),–,"inconclusive [cytotoxic, single point]","inconclusive [cytotoxic, partial curve, poor fit]",–,"inconclusive [cytotoxic, partial curve]",active: 5.9 µM,inactive,–,"inconclusive [cytotoxic, partial curve, poor fit]","inconclusive [cytotoxic, single point]"
C[C@@H]1[C@H](O)[C@@H](C)C=CC=CCCC=CC=CC=CC=C[C@H](O[C@H]2O[C@@H](C)[C@H](O)[C@@H](N)[C@@H]2O)CC2O[C@](O)(C[C@@H](O)[C@H](O)CC[C@@H](O)C[C@@H](O)C[C@@H](O)CC(=O)O[C@H]1C)C[C@H](O)[C@H]2C(=O)O,–,inactive,"inconclusive [cytotoxic, partial curve, poor fit]",–,inactive,–,inconclusive,–,inactive,–
CC(=O)Nc1ccc(OC[C@](C)(O)C(=O)Nc2ccc([N+](=O)[O-])c(C(F)(F)F)c2)cc1,–,inactive,"inconclusive [rising, single point]","inconclusive [cytotoxic, full curve, poor fit]","inconclusive [rising, full curve]","inconclusive [rising, full curve]",–,–,"inconclusive [rising, full curve]",–
CN1C(=O)CCS(=O)(=O)C1c1ccc(Cl)cc1 (configuration not stated),–,"inconclusive [cytotoxic, full curve, poor fit]","inconclusive [cytotoxic, single point]","inconclusive [cytotoxic, partial curve, poor fit]","inconclusive [cytotoxic, full curve, poor fit]",inactive,inactive,–,–,–
CCCC(C)(COC(N)=O)COC(=O)NC(C)C (configuration not stated),–,"inconclusive [cytotoxic, full curve, poor fit]",inactive,–,inactive,–,"inconclusive [cytotoxic, full curve, poor fit]",–,inactive,–
C[C@](O)(COc1ccc(C#N)cc1)C(=O)Nc1ccc(C#N)c(C(F)(F)F)c1,–,inactive,"inconclusive [cytotoxic, single point]","inconclusive [cytotoxic, partial curve, poor fit]",–,"inconclusive [cytotoxic, partial curve]","inconclusive [cytotoxic, single point]",–,"inconclusive [cytotoxic, single point]","inconclusive [cytotoxic, single point]"
COc1ccc2c(c1)CN(C)CC2c1ccc(Cl)c(Cl)c1 (configuration not stated),–,"inconclusive [cytotoxic, partial curve]",active: 23.5 µM,–,active: 20.9 µM,–,active: 10.5 µM,–,active: 23.5 µM,–
N[C@@H](Cc1ccc(N(CCCl)CCCl)cc1)C(=O)O,–,active: 20.9 µM,active: 13.2 µM,–,–,–,–,–,active: 18.7 µM,–
C[C@H]([C@H](O)CCC(C)(C)O)[C@H]1CC[C@@]2(O)C3=CC(=O)[C@@H]4C[C@@H](O)[C@@H](O)C[C@]4(C)[C@@H]3CC[C@]12C,–,inactive,inactive,–,"inconclusive [cytotoxic, single point]",inactive,–,–,"inconclusive [cytotoxic, full curve, poor fit]",–
C[C@]12CCC(=O)C=C1CC[C@@H]1[C@H]3CC[C@](C)(O)[C@@]3(C)CC[C@@H]12,–,"inconclusive [cytotoxic, partial curve, poor fit]","inconclusive [cytotoxic, single point]","inconclusive [cytotoxic, single point]","inconclusive [cytotoxic, partial curve, poor fit]",active: 10.8 µM,"inconclusive [cytotoxic, partial curve, poor fit]",–,"inconclusive [cytotoxic, partial curve, poor fit]","inconclusive [cytotoxic, partial curve, poor fit]"
CC(=Cc1csc(C)n1)[C@@H]1C[C@H]2O[C@]2(C)CCC[C@H](C)[C@@H](O)[C@@H](C)C(=O)C(C)(C)[C@@H](O)CC(=O)O1,–,inactive,inactive,inactive,inactive,–,inactive,–,–,"inconclusive [cytotoxic, full curve]"
CN(C)CCc1ccc(O)cc1,–,inactive,inactive,"inconclusive [cytotoxic, full curve, poor fit]","inconclusive [cytotoxic, full curve, poor fit]",–,inactive,–,–,inactive
C[C@H]1CCCC=CC2C[C@H](O)C[C@@H]2[C@H](O)C=CC(=O)O1 (some centres not stated),–,inactive,inactive,"inconclusive [cytotoxic, full curve]",inactive,"inconclusive [cytotoxic, partial curve, poor fit]","inconclusive [cytotoxic, full curve]",–,"inconclusive [cytotoxic, full curve]","inconclusive [cytotoxic, full curve]"
C=C1C[C@H]2[C@H]3CCC(=O)[C@@]3(C)CC[C@@H]2[C@@]2(C)C=CC(=O)C=C12,–,"inconclusive [cytotoxic, partial curve, poor fit]","inconclusive [cytotoxic, single point]","inconclusive [cytotoxic, single point]","inconclusive [cytotoxic, single point]","inconclusive [cytotoxic, single point]","inconclusive [cytotoxic, partial curve]",–,–,–
